About 4,300 (8.3%) of roughly 52,000 compounds were called active. No stated cut-off is given here; in the data, active means survival mostly below about 52% (no sharp cut-off); inactive means mostly above about 56%. The list shows a part of the results.
tested on: DeltatarO mutant; assay: S. aureus survival, RN4220 and DeltatarO strains – OD600, teichoic acid synthesis inhibitors, primary screen (AID 463173); conditions: S. aureus RN4220 wild type/DeltatarO growth, OD600, 18 h, active compounds read low, screened at 18.75 µg/mL (by protocol)

| Compound | survival |
| --- | --- |
| CCCCNc1nc2c(c(=O)n(Cc3ccc(Cl)c(Cl)c3)c(=O)n2C)n1C | active: -10% |
| Cc1cccc(-c2c3c(=O)n(C)c(=O)n(C)c3c3cnc4ccccc4n23)c1 | inactive: 84% |
| O=C(Nc1c(Cl)cccc1Cl)c1cc(-c2cccc(O)c2)on1 | inactive: 68% |
| Cc1c(NC(=O)Nc2ccc(C#N)cc2)c(=O)n(-c2ccccc2)n1C | inactive: 122% |
| COc1ccc(C2c3[nH]c4ccc(OC)cc4c3CCN2C(=O)Nc2ccccc2)cc1 (stereo not given) | inactive: 94% |
| O=C(O)CCNc1ccc(Cl)cn1 | inactive: 100% |
| CN1CCC(OC(=O)c2cc3cc(Cl)cc(Cl)c3oc2=O)CC1 | inactive: 102% |
| O=C(N1CCOCC1)N1CCc2ccccc21 | inactive: 62% |
| Cc1cccc(C(=O)Nc2ccc(OCc3cc(=O)n4c5c(sc4n3)CCCC5)cc2)c1 | inactive: 71% |
| COc1ccccc1Nc1nn2c(=O)c3ccc(C(=O)NC(C)c4ccccc4)cc3nc2s1 (stereo not given) | inactive: 87% |
| NC1(C2CCCCC2=O)CCCCC1 (stereo not given) | inactive: 93% |
| COC(=O)c1ccccc1NC(=O)c1cc2c(-c3ccc(OC)c(OC)c3)nn(C)c2s1 | inactive: 97% |
| C=CCC(CC=C)(CNC(=O)C(=O)Nc1ccc(C(=O)OCC)cc1)c1ccccc1 | inactive: 73% |
| O=C(/C=C/c1cn(CC(O)CN2CCCCCC2)c2ccccc12)c1ccc(Br)cc1 (stereo not given) | active: -3% |
| Cc1ccc(-c2nc3ccccn3c2Nc2ccc3c(c2)OCO3)o1 | active: 34% |
| Cc1ccc(NC(=O)C(Cc2ccccc2)n2cccc2)cc1C (stereo not given) | active: 28% |
| CCCN(C(=O)c1cc2c(s1)-c1c(C)cccc1OC2)c1ccc(OCC)cc1 | inactive: 98% |
| CC(C)c1ccc(Nc2nc3c(S(=O)(=O)c4ccc(Br)cc4)nnn3c3ccsc23)cc1 | inactive: 76% |
| COc1ccc(-c2nn(-c3cccc([N+](=O)[O-])c3)c3c2cnc2cc4c(cc23)OCO4)cc1 | inactive: 87% |
| COc1cccc(NS(=O)(=O)c2ccc3c(c2)CCCN3C(=O)C2CCC2)c1 | inactive: 100% |
| Cc1cc2nc(-c3cccc(NC(=O)CSc4ccc(Cl)cc4)c3)oc2cc1C | inactive: 58% |
| CCOC(=O)c1cc(-c2ccc(C)cc2)n(CC(=O)NC2CCCCCC2)c1C | inactive: 101% |
| Cc1ccc(C)c(NC(=O)C(c2ccccc2)N2Cc3ccccc3C2=O)c1 (stereo not given) | inactive: 117% |

| Compound | survival |
| --- | --- |
| COc1ccc(-c2cc(=O)oc3c4c(ccc23)OCN(Cc2cccc(OC)c2)C4)cc1 | active: 38% |
| COC(=O)c1ccccc1NC(=O)Cn1c(=O)n(CCCC(=O)NCc2ccccc2OC)c(=O)c2ccccc21 | inactive: 130% |
| COC(=O)c1ccc(NC(=O)COC(=O)CSc2nc(C)cc(C)n2)cc1 | inactive: 84% |
| COc1cc2cc(CNc3ccccc3)c(=O)n(CC(=O)Nc3cc(C)cc(C)c3)c2cc1OC | inactive: 84% |
| O=C(CCC1N=C2c3ccccc3N=C(SCc3ccc(F)cc3)N2C1=O)NC1CCCCC1 (stereo not given) | inactive: 74% |
| CC(=O)c1ccc(NC(=O)c2nc3nc(C)cc(C(F)F)n3n2)cc1 | inactive: 76% |
| CCOc1ccc(-n2nc(CO)c(C(=O)NCc3cccc(OC)c3)n2)cc1 | active: 41% |
| Cc1cc(C)cc(-n2ccn(CC(=O)Nc3ccccc3F)c(=O)c2=O)c1 | inactive: 76% |
| CSc1ncc(C(=O)Nc2cc(Cl)ccc2C)c(-c2ccccc2)n1 | inactive: 74% |
| CCOC(=O)C1CCCN(c2c3c(nc4cc(-c5ccc(F)cc5)nn24)CCCC3)C1 (stereo not given) | inactive: 76% |
| CC(=O)N1CCCc2cc(S(=O)(=O)N3CCN(c4cccc(C(F)(F)F)c4)CC3)ccc21 | inactive: 89% |
| COc1ccccc1NC(=O)C1CCN(c2cnccn2)CC1 | active: 54% |
| COC(=O)Cc1c(C)c2cc3c(c(C)c2oc1=O)OCN(CCc1ccc(OC)cc1)C3 | inactive: 55% |
| CCN(CCN(C)C)C(=O)C1CCN(S(=O)(=O)c2c(C)noc2/C=C/c2ccccc2F)CC1 | inactive: 104% |
| CCn1c(CNc2cccc(Cl)c2)nnc1SCc1ccccc1 | inactive: 82% |
| O=C(OC(C(=O)NC1CCCCC1)c1ccccc1)c1ccco1 (stereo not given) | inactive: 98% |
| Cc1cc(C)c(NC(=O)Cn2nnc(-c3nc(-c4ccccc4)no3)c2N)c(C)c1 | inactive: 83% |
| Cc1cc(C)c2c(n1)SCCN2C(=O)Nc1ccc(C(=O)Nc2ccc(C(C)C)cc2)cc1 | inactive: 70% |
| CCN(CC)c1ccc2cc(-c3nc(-c4cc(OC)c(OC)c(OC)c4)no3)c(=O)oc2c1 | inactive: 87% |
| CC(C)c1ccc(Nc2c(-c3ccco3)nc3ccccn23)cc1 | inactive: 42% |
| COc1cc(NC(=O)c2ccc(-n3cnc4cccnc43)cc2)cc(OC)c1 | inactive: 55% |
| COc1ccc(/C=C/C(=O)Nc2ccc3nc(N4CCCCC4)cc(C)c3c2)cc1OC | active: 43% |
